Each structure is given as a SMILES string.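 96-well plates; 48 h exposure; 5 concentrations. Endpoints by linear interpolation between flanking doses. Not reached: highest tested concentration assigned. Here, GI50 denotes the concentration required for 50% inhibition of growth. Definition used: TGI = concentration required for complete inhibition of growth.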 Numbered stars: 1 amine (or outer) side, 2 acyl side, 3 side chain; on linkers, the order of the positions; unused ones are H or OH. Square brackets hold non-standard residues; d marks the D form. Peptide text beside a SMILES is read from it. * marks the point of attachment. X9 = C/C=C/CC(C)C(O)[C@H](N[*:1])C(=O)[*:2]; Leu(ol) = CC(C)C[C@H](N)CO; Iva = CC[C@](C)(N)C(=O)O; Octanoyl = CCCCCCCC(=O)*; Aib = CC(C)(N)C(=O)O

The subject of the test is NCI-H322M lung. As to the kind of experiment: NCI-60 cell line screen, 48 h.
As to `COc1ccc([C@@H]2C(=O)N(c3cc(OC)c(OC)c(OC)c3)[C@H]2c2ccc(OC)c(O)c2)cc1`, the GI50 was 0.0853 µM and the TGI is over 100 µM.

Consider `C=CCN(C)S(=O)(=O)/N=C1\NC(=O)NC1=C(Cl)Cl`, for which the GI50 was 3.47 µM and the TGI is 13.5 µM.

With `O=C(CCC(=O)N1CCOCC1)OCCCCCCSc1ccc([N+](=O)[O-])c2nonc12`, the GI50 was 3.65 µM and the TGI came out at 15.3 µM.

Take `C/C=C/CC(C)C(O)[C@H](NC(=O)[C@@H]1CCCN1C(=O)C(C)(C)NC(=O)CCCCCCC)C(=O)N[C@@](C)(CC)C(=O)N[C@@H](CCC(N)=O)C(=O)N[C@H](CCC(N)=O)C(=O)NC(C)(C)C(=O)NC(C)(C)C(=O)N[C@@H](CCC(N)=O)C(=O)N[C@H](CC(C)C)C(=O)N[C@H](CO)CC(C)C` (stereo partly drawn) (Octanoyl-[Aib]P[X9][Iva]Q[dQ][Aib][Aib]Q[dL][Leu(ol)]): the GI50 is 11.2 µM and the TGI amounted to 23.7 µM.
